The campaign covered roughly 310,000 compounds. About 2,200 (0.71%) showed an effect of 50% or more. Effects have a minus sign here. The list shows a part of the results.

The target in this assay is human ether-à-go-go-related gene (hERG) potassium channel (human, UniProt Q12809). The assay is described as follows: primary screen, population patch clamp on CHO cells stably expressing hERG.
human ether-à-go-go-related gene (hERG) potassium channel, sequence (Q12809 whole entry, looked up): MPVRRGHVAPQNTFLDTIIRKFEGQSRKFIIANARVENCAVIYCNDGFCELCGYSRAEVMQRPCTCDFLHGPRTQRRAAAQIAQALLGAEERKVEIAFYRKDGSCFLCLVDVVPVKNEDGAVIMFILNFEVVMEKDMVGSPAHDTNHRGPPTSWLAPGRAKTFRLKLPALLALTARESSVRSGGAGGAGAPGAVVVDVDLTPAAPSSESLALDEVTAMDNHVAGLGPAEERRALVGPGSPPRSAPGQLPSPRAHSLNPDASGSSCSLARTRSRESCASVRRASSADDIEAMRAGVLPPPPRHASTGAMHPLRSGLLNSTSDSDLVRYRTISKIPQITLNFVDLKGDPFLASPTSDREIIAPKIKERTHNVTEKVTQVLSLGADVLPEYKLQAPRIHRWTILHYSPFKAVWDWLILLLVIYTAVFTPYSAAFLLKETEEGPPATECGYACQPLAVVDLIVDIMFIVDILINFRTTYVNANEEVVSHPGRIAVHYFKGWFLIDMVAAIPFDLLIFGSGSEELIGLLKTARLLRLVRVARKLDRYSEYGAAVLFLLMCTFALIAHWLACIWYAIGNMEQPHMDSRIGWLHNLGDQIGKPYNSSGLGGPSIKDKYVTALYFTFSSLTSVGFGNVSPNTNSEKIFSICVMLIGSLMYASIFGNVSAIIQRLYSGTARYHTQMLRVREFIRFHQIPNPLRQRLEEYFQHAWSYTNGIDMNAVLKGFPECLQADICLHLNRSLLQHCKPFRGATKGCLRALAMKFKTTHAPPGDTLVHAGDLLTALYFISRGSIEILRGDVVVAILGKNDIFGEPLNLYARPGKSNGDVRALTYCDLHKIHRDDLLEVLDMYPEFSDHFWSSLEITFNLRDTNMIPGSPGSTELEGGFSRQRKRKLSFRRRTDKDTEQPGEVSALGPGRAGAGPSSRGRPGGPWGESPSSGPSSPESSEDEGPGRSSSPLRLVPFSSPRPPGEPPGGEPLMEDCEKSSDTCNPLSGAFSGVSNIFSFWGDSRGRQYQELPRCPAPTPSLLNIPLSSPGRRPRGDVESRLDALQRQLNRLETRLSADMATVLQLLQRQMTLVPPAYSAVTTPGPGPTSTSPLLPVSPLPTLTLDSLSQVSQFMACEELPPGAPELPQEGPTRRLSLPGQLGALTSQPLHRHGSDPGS
Consider `O=C(CCNS(=O)(=O)c1cccc2nonc12)N1CCN(c2cccc(Cl)c2)CC1`, for which the “hERG current change (%, negative = inhibition) at 1uM” value is reported as -0.137%.
Consider `CCCCc1cn([C@@H](CCCCNC(=O)OC(C)(C)C)C(=O)N2CCN(C(=O)OC(C)(C)C)CC2)nn1`, for which the “hERG current change (%, negative = inhibition) at 1uM” value stood at 11.2%.
Consider `O=C(NC(=S)Nc1cc(S(=O)(=O)N2CCOCC2)ccc1O)c1ccco1`, for which the “hERG current change (%, negative = inhibition) at 1uM” value is reported as 11.1%.
In the case of `O=C(Nc1ccccc1F)C1CC1c1ccccc1` (stereo not shown), the “hERG current change (%, negative = inhibition) at 1uM” value is 12.7%.
Consider `O=C(OCC1OC(n2ccc(=O)[nH]c2=O)C(Cl)C1O)c1ccccc1` (stereo not shown), for which the “hERG current change (%, negative = inhibition) at 1uM” value came to 1.97%.
`O=C1/C(=C\c2ccccc2)SC(=S)N1CCC(=O)N1CCCCC1CCO` (stereo not shown): the “hERG current change (%, negative = inhibition) at 1uM” value turned out to be 4.17%.
As to `COc1ccc(-c2csc(NC(=O)CC(NC(C)=O)c3ccccc3)n2)cc1OC` (stereo not shown), the “hERG current change (%, negative = inhibition) at 1uM” value was 2.94%.
Take `CCc1ccc(/C=C2\SC(=S)N(CCCC(=O)Nc3ccccc3C(=O)O)C2=O)cc1`: the “hERG current change (%, negative = inhibition) at 1uM” value is reported as 13.3%.
For `COc1ccc(/C=C/c2nnc(NC(=O)COc3cccc(C)c3)s2)cc1`, the “hERG current change (%, negative = inhibition) at 1uM” value was found to be 6.26%.
For `CCCCNC(=O)Cn1c(=O)oc2cc(S(=O)(=O)N3CC(C)CC(C)C3)ccc21` (stereo not shown), the “hERG current change (%, negative = inhibition) at 1uM” value amounted to 8.02%.
With `CCOc1cc(C2C3=C(CC(C)(C)CC3=O)N(CCCOC)C3=C2C(=O)CC(C)(C)C3)ccc1O`, the “hERG current change (%, negative = inhibition) at 1uM” value came to 14%.
Take `CCN(CC)c1nc(Nc2ccc(Cl)cc2)nc(OCC#N)n1`: the “hERG current change (%, negative = inhibition) at 1uM” value worked out at 8.46%.
On to `COc1ccccc1CN1CC(C(=O)NCc2cccnc2)CC1=O` (stereo not shown), for which the “hERG current change (%, negative = inhibition) at 1uM” value is recorded as -0.197%.
Take `O=C(C1CCCC1)N1CCC(CC2CC(c3ccc(Cl)cc3)=NO2)(C(=O)NCC2CCCCC2)CC1` (stereo not shown): the “hERG current change (%, negative = inhibition) at 1uM” value came to 5.7%.
As to `O=C(NCc1ccccc1)C12CC3CC(CC(C3)C1)C2`, the “hERG current change (%, negative = inhibition) at 1uM” value came to 9.12%.
`COc1cc(NC(=O)c2cc(-c3ccco3)on2)c(OC)cc1Cl`: the “hERG current change (%, negative = inhibition) at 1uM” value was -10.4%.
Turning to `Cc1cc(N)c(C)c([N+](=O)[O-])c1C`, the “hERG current change (%, negative = inhibition) at 1uM” value is on record as 15%.
As to `CCOC(=O)c1oc2ccccc2c1CN1CC(C)OC(C)C1` (stereo not shown), the “hERG current change (%, negative = inhibition) at 1uM” value came to 7.86%.
In the case of `Cc1ccc(/C=N/NC(=O)c2cccnc2)s1`, the “hERG current change (%, negative = inhibition) at 1uM” value is 14.4%.
With `CC(C)(CO)NCc1cccs1.Cl`, the “hERG current change (%, negative = inhibition) at 1uM” value was 12.7%.
To `Cc1onc(-c2ccccc2Cl)c1C(=O)OCN1C(=O)c2ccccc2C1=O` belongs 7.89%; to `COc1ccc(N2CCN(c3cc(C)c4ccccc4n3)CC2)cc1`, 10.9%.
Under `Cc1cc(=O)oc2c(C)c(OCC(=O)N3CCN(c4ccccc4)CC3)ccc12` stands 9.28%; under `Cc1ccccc1OCC(=O)N/N=C/c1ccncc1`, 11.5%.
On to `O=C(OCC(=O)N1CCCC1)c1ccccc1O`, for which the “hERG current change (%, negative = inhibition) at 1uM” value is 15.7%.
Under `CCOC(=O)C(CC)n1nc(C)n2c(cc3occc32)c1=O` (stereo not shown) stands 13.4%; under `CCC1CCCCN1c1nc(-c2ccncc2)nc2ccccc12` (stereo not shown), -0.516%.
Take `CC(=O)Nc1ccc(-n2c(C)ccc2C)cc1`: the “hERG current change (%, negative = inhibition) at 1uM” value was 12.9%.
Turning to `CCOc1ccc(OCc2ccc(C(=O)NCc3cccnc3)o2)cc1`, the “hERG current change (%, negative = inhibition) at 1uM” value is on record as -18.2%.
As to `FC(F)Sc1ccc(NC(=S)NC2CCCC2)cc1`, the “hERG current change (%, negative = inhibition) at 1uM” value is given as 8.79%.
Under `CC1(C)Cc2c(sc3c2c(=N)n(Cc2ccco2)c(=O)n3CC(=O)Nc2ccc(Cl)cc2)CO1` stands -0.801%; under `Clc1ccc(COn2nnc3ccccc32)c(Cl)c1`, 9.69%; under `CCN(CC)CC.CCN1C(=O)/C(=C2/Sc3ccccc3N2CCCS(=O)(=O)O)SC1=S`, 3.89%.
For the molecule `CC1(C)Cc2c(sc3c2c(=N)n(Cc2ccco2)c(=O)n3Cc2ccc(F)cc2)CO1`, the “hERG current change (%, negative = inhibition) at 1uM” value was 0.644%.
Turning to `O=c1cc([O-])[n+]2c3n1CCCN3CCC2`, the “hERG current change (%, negative = inhibition) at 1uM” value came out at 1.27%.
As for `CCCCCN(C(=O)CCC(=O)OCC(=O)c1ccc(F)c(F)c1)c1c(N)n(CCCC)c(=O)[nH]c1=O`, the “hERG current change (%, negative = inhibition) at 1uM” value is given as -3.35%.
For the molecule `O=C(/C=C/c1ccc(OCc2ccccc2)c(OCc2ccccc2)c1)c1cccnc1`, the “hERG current change (%, negative = inhibition) at 1uM” value was determined as 1.73%.
Under `CC(C)(C)c1cc(C(=O)Nc2ccc(F)cc2)n(Cc2ccc(F)cc2)n1` stands 10.1%; under `N#CC1=C(N)N2C(=C(C#N)C13CCCCC3)SC1CCCCC12O` (stereo not shown), 11.9%; under `O=C(Nc1ccc(NC(=O)C2CCCCC2)nc1)c1cccs1`, 10.4%.
In the case of `O=C(CSc1nc2ccccc2n1CC(=O)N1CCCC1)N1CCN(C(=O)c2ccco2)CC1`, the “hERG current change (%, negative = inhibition) at 1uM” value came to 6.53%.
For `Cc1ccc(C)c(NC(=O)c2ccccc2NC(=O)C2CCCO2)c1` (stereo not shown), the “hERG current change (%, negative = inhibition) at 1uM” value is on record as 8.86%.
In the case of `Nc1ccc(Cl)c(NC(=O)c2cccs2)c1`, the “hERG current change (%, negative = inhibition) at 1uM” value was found to be 12.6%.
On to `COC(=O)C1=C(c2cccc(OCc3ccccc3)c2)C[C@@H]2CC[C@H]1N2C(=O)NCc1ccc(Br)cc1`, for which the “hERG current change (%, negative = inhibition) at 1uM” value is recorded as 15.2%.
Regarding `COC(=O)C1=C(C(=O)OC)C(c2ccc(OC)c(OC)c2)c2sc(=O)[nH]c2S1` (stereo not shown), the “hERG current change (%, negative = inhibition) at 1uM” value stood at 2.33%.
For `O=C1COc2ccc(C(=O)COC(=O)CNS(=O)(=O)c3cccc(F)c3)cc2N1`, the “hERG current change (%, negative = inhibition) at 1uM” value is given as 3.27%.
With `CC1C(=O)C(C)C(c2ccco2)NC1c1ccco1.Cl` (stereo not shown), the “hERG current change (%, negative = inhibition) at 1uM” value was 12.2%.
Turning to `c1cnn(-c2cncc(-n3cccn3)n2)c1`, the “hERG current change (%, negative = inhibition) at 1uM” value stood at 6.72%.
For `CCOC(=O)c1c(CN(C)C)oc2cc(CN(C)C)c(O)c(CSc3ccccc3)c12.Cl`, the “hERG current change (%, negative = inhibition) at 1uM” value was 8.99%.
With `CC1CCN(C(=O)Cc2nn(C)c(=O)c3ccccc23)CC1`, the “hERG current change (%, negative = inhibition) at 1uM” value was 8.01%.
Consider `CN(C)C=NC(=O)c1cc(C(=O)c2ccccc2Cl)c[nH]1`, for which the “hERG current change (%, negative = inhibition) at 1uM” value is given as 10.1%.
Consider `Cc1cc(CNC(=O)C2(C(F)(F)F)CC(CCCO)CCCO2)nn1C` (stereo not shown), for which the “hERG current change (%, negative = inhibition) at 1uM” value came to 13.2%.
Take `Cn1c(SCC(=O)Nc2ccc(Cl)cc2)nnc1C1CC1`: the “hERG current change (%, negative = inhibition) at 1uM” value was 16%.
Regarding `C[C@@H]1CC=C[C@H]2[C@H]1C(=O)N(Cc1ccccc1)[C@H]2c1ccc(-c2ccoc2)cc1F`, the “hERG current change (%, negative = inhibition) at 1uM” value came to 17.9%.
As to `CC1(C)OC(=O)CC1C(=O)NCc1ccccc1` (stereo not shown), the “hERG current change (%, negative = inhibition) at 1uM” value is recorded as 12.4%.
For `COc1cc(C(=O)N(CCCO)Cc2cc3ccc(C)c(C)c3[nH]c2=O)cc(OC)c1OC`, the “hERG current change (%, negative = inhibition) at 1uM” value is given as -1.43%.
With `COc1ccc(C2/C=C\CN(CC(C)C)CC(=O)N2Cc2ccc(F)cc2)cc1` (stereo not shown), the “hERG current change (%, negative = inhibition) at 1uM” value is given as 7.46%.
For `O=C(N/N=C/C=N/NC(=O)c1ccco1)c1ccco1`, the “hERG current change (%, negative = inhibition) at 1uM” value was -2.61%.
To `CCCOc1ccc(C(=O)N2CCCC2C(=O)O)cc1` (stereo not shown) belongs 12.3%; to `CC1CN=C(NCc2ccc(F)cc2)S1` (stereo not shown), 5.51%.
As for `O=[N+]([O-])CCO`, the “hERG current change (%, negative = inhibition) at 1uM” value turned out to be 11.3%.
As for `CC1(C)Cc2nc3oc4c(SCC(N)=O)ncnc4c3cc2CO1`, the “hERG current change (%, negative = inhibition) at 1uM” value was determined as 8.49%.
With `Cc1ccc(N2C(=O)/C(=C\c3ccco3)SC2=S)cc1`, the “hERG current change (%, negative = inhibition) at 1uM” value came to 22.6%.
In the case of `COc1ccc(CNC(=S)NC(C)CCc2ccccc2)cc1` (stereo not shown), the “hERG current change (%, negative = inhibition) at 1uM” value is recorded as -16.1%.
To `N#C/C(=C/c1ccccc1[N+](=O)[O-])c1nc(C2CC2)cs1` belongs 12.5%; to `COc1ccc(OC)c(NC(=O)Cc2csc(NC(=O)Nc3ccccc3OC)n2)c1`, 4.48%; to `O=[N+]([O-])CC(c1ccc(F)cc1)c1c[nH]c2ccccc12` (stereo not shown), 7.67%.
For the molecule `CC(C)(C)C(=O)NC1CC2CCCC(C1)N2C(=O)Nc1ccccc1` (stereo not shown), the “hERG current change (%, negative = inhibition) at 1uM” value is given as 13.2%.
Under `Cc1ccccc1Cn1nc(C)c(NC(=O)c2cc(CC(C)C)on2)c1C` stands 6.85%; under `Cc1nc2c([nH]1)C1(CCN(Cc3ccccc3)CC1)C(C#N)=C(N)O2.Cl`, -11.1%; under `O=S(=O)(c1cccc(NC(=S)N2CCN(c3ccccc3F)CC2)c1)C(F)F`, 4.27%.
For the molecule `CC1(C)SC(=S)N(c2ccccc2)C1/[N+]([O-])=C/c1cccc([N+](=O)[O-])c1` (stereo not shown), the “hERG current change (%, negative = inhibition) at 1uM” value was 12.7%.
To `Cc1cc(C)cc(-n2c3nc4ccccc4nc3c3c(=O)n(Cc4ccco4)cnc32)c1` belongs 18.5%.
To `S=C(NCCc1ccccc1)N/N=C/c1ccccc1Cl` belongs 23.8%; to `CCCCCCOc1ccc(CN2CCN(CCO)CC2)cc1`, -14.3%; to `CCOC(=O)C1(CCCc2ccccc2)CCN(C(=O)CCn2cncn2)CC1`, -13.1%.
For `CCCCCCn1c(=O)c(C(=O)N/N=C/c2cccc(F)c2)c(O)c2ccccc21`, the “hERG current change (%, negative = inhibition) at 1uM” value was 11.4%.
Regarding `CCc1ccc(NC(=O)Nc2ccc3c(c2)CCC3)cc1`, the “hERG current change (%, negative = inhibition) at 1uM” value was found to be 10.9%.
Turning to `Cc1ccc(NCN2C(=O)C3CC=C(Cl)CC3C2=O)cc1` (stereo not shown), the “hERG current change (%, negative = inhibition) at 1uM” value was 10.9%.
Consider `Cc1cccc(CCN2C(N(C)C)=NC[C@@H]2CC(C)C)c1`, for which the “hERG current change (%, negative = inhibition) at 1uM” value came to 1.88%.
With `COc1ccc(OC)c(NC(=O)CN2C(=O)COc3ccc(S(=O)(=O)N4CCCC4)cc32)c1`, the “hERG current change (%, negative = inhibition) at 1uM” value came to 11.3%.
For `CSc1cccc(NC(=S)N(Cc2ccc(C)cc2)Cc2cccnc2)c1`, the “hERG current change (%, negative = inhibition) at 1uM” value was 0.958%.
Under `O=C(c1cc(S(=O)(=O)N2CCN(c3ccccc3)CC2)ccc1Cl)N1CCCCCCC1` stands 4.75%; under `CCOC(=O)C1=C(CSc2nc3c(cc2C#N)CN(C)CC3)OC(N)=C(C#N)C1c1ccc(F)cc1` (stereo not shown), 10.5%; under `COc1cccc(CN2CC(C(=O)N3CCCCCC3)CCC2=O)c1` (stereo not shown), 12.3%.
Regarding `COC(=O)C(CC(=O)c1ccc(Br)cc1)n1cccn1` (stereo not shown), the “hERG current change (%, negative = inhibition) at 1uM” value came out at 12.5%.
Consider `CCCOc1ccc(S(=O)(=O)N2C(=O)CC(=O)N(Cc3ccc(OCC)cc3)C2=O)cc1`, for which the “hERG current change (%, negative = inhibition) at 1uM” value is 9.83%.
As for `CC(=O)/C(=N\Nc1ccccc1)Sc1nnc(-c2ccccc2)n1-c1ccccc1`, the “hERG current change (%, negative = inhibition) at 1uM” value was determined as 3.94%.

(Values after article PMC4336329 (PLoS ONE, 2015).)
